From patent US20190270798A1 (CHILDREN S MEDICAL CENTER, published 2019)

Molecular target: T1, human Leucine-Rich Repeat-Containing Protein 33 (LRRC33) (human, UniProt Q86YC3 19-692)
T1 construct: tested on cells or in cell lysates; Signal peptide 1-18 as stated left out; also called NRROS; FLAG-LRRC33
T1 sequence: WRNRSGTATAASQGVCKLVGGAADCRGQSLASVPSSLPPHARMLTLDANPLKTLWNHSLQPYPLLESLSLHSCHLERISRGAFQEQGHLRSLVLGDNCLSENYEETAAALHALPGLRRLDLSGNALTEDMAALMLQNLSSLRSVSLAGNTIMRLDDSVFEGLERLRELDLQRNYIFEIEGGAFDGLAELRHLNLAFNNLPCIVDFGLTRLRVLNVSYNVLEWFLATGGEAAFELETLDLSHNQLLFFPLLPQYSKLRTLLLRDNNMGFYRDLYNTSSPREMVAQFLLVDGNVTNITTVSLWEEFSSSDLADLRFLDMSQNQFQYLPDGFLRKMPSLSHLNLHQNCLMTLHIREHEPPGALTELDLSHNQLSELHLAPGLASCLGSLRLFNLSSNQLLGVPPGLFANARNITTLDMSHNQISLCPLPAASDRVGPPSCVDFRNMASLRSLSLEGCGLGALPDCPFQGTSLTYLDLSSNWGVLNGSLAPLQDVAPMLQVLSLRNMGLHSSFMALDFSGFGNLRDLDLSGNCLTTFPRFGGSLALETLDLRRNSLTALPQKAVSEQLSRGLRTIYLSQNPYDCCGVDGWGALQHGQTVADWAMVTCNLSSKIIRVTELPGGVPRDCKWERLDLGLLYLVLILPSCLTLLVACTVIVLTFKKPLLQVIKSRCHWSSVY
Test: co-immunoprecipitation from 293T lysates (FLAG IP, prodomain blot, and the reverse)
Protocol: After 48 hours of transfection, cells were collected and lysed in IP lysis buffer (50 mM Tris pH7.4, 150 mM NaCl, 2 mM EDTA, 1% NP-40), which was supplemented with a protease inhibitor cocktail (Roche) and subjected to western blot analysis or were used for immunoprecipitation with the indicated antibody. Performed as described previously {Wang et al, 2012}. L1.2 cells were transfected with indicated plasmid using electroporation. For microglia cell culture, freshly isolated microglia (at age 3 weeks) were cultured in 6-well (2×10⁵ cells per well in 2 ml) poly-D-lysine-coated plates, and grown in serum free microglia culture medium: Neurobasal medium with B-27 supplements (Thermo Fisher), 5 ug/ml insulin, 2 mM L-glutamine, 1 mM sodium pyruvate, 5 μg/ml N-acetyl cysteine (NAC), 100 U/ml penicillin, […] streptomycin, 10 μM thyroxine, 1×SATO (100 μg/ml transferrin, 100 μg/ml BSA, 16 μg/ml putrescine, 60 ng/ml progesterone, 40 ng/ml sodium selenite) (sigma) and mouse recombinant carrier free CSF 10 ng/ml (R&D Systems) at 37° C., 5% CO². Cells were cultured for at least 5 d without changing medium.
Using immunoprecipitation and Western blotting, the prediction that LRRC33 associates with pro-TGF-β1 was confirmed. […]

B1: human pro-TGF-β1 (ligand)
chain: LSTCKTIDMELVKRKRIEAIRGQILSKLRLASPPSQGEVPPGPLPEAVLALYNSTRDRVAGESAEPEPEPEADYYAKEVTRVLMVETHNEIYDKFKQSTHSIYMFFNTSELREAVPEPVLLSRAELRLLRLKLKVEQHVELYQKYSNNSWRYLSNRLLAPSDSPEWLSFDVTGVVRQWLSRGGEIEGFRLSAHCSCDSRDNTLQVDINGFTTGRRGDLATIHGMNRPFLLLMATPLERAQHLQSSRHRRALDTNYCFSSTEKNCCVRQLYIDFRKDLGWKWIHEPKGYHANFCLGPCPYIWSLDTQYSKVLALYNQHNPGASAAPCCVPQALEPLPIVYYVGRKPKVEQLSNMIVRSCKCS
notes: Prodomain ([…]) plus TGF-β ([…]) of the human precursor, signal peptide […] left out as stated; also called latent TGF-β1
binding result: binds
